These results are taken from PubChem BioAssay AID463173 (ICCB-Longwood Screening Facility, Harvard Medical School, 2010).

In all, about 52,000 compounds went through this assay and about 4,300 (8.3%) were called active. No stated cut-off is given here; in the data, active means survival mostly below about 52% (no sharp cut-off); inactive means mostly above about 56%. The list shows a part of the results.

For the assay, the system named is DeltatarO mutant. The experiment in a line: S. aureus survival, RN4220 and DeltatarO strains – OD600, teichoic acid synthesis inhibitors, primary screen (AID 463173). The following applies: S. aureus RN4220 wild type/DeltatarO growth, OD600, 18 h, active compounds read low, screened at 18.75 µg/mL (by protocol).
Take `CCN1CCc2c(sc(-n3cccc3)c2C(C)NC(=O)Nc2ccc(Br)cc2)C1` (stereo unspecified): the survival was inactive: 102%.
With `CCCC(=O)OCc1cnc(C)c2oc(=O)c(C(=O)Nc3cccc(C(F)(F)F)c3)cc12`, the survival was inactive: 87%.
For `Cc1cccc(N2CCN(C(=O)C3CCN(S(=O)(=O)c4c(C)noc4C)CC3)CC2C)c1` (stereo unspecified) the value was inactive: 100%; for `COc1ccc(N(Cc2cccs2)C(=O)c2ccc(OC)c(Cl)c2)cc1`, inactive: 59%.
The same measure for `CCc1nnc(NC(=O)CSC2=NC(=O)C(NC(C)=O)C(=O)N2)s1` (stereo unspecified): inactive: 99%; for `COc1ccc(CC(NC(C)=O)C(=O)NC2CCN(c3nc(OC)nc(OC)n3)CC2)cc1` (stereo unspecified): inactive: 88%.
For `COc1cc(CNC(=O)c2ccc3c(c2)c(C)c(C)n3Cc2cccc(C)c2)cc(OC)c1OC` the value was inactive: 102%.
In the case of `CCN(CC)C(=O)c1sc2c(c1C)c(=O)n(CCc1ccccc1)c(=O)n2Cc1cc(C)ccc1C`, the survival is inactive: 81%.
The same measure for `CC(C)(C)C(=O)NCC(c1ccc2c(c1)OCO2)N1CCOCC1` (stereo unspecified): active: 0%; for `O=C(NCCc1ccc(Cl)cc1)c1ccc(CS(=O)(=O)c2ccc(Cl)cc2)o1`: inactive: 74%; for `Cc1cccc(C)c1NC(=O)C(NS(=O)(=O)c1cccs1)c1ccccc1` (stereo unspecified): inactive: 56%.
On to `O=C(Cn1ccn(-c2ccc(F)cc2)c(=O)c1=O)Nc1ccc(F)cc1`, for which the survival was inactive: 60%.
In the case of `Cc1cc(C)c2c(c1)c(C)cc1nnc(SCc3ccccc3C#N)n12`, the survival was inactive: 68%.
For `CC1=C(C(=O)Nc2ccc(Cl)cc2)C(c2ccccc2)n2ncc(C(=O)Nc3ccccc3)c2N1` (stereo unspecified) the value was inactive: 64%; for `Cc1ccc(C)c(Cn2c(=O)c3c(nc4n3CCN4c3ccccc3)n(C)c2=O)c1`, inactive: 79%; for `Cc1ccc(NC(=O)CN2C(=O)COc3ccc(S(=O)(=O)NC4CCCC4)cc32)cc1N(C)C`, inactive: 84%.
Turning to `CC(=O)N1CCc2c(sc3c2c(=O)n(CCc2ccccc2)c(=O)n3Cc2ccccc2C)C1`, the survival is inactive: 85%.
For `CC(=O)Nc1n[nH]c(-c2ccc(C)cc2)c1C`, the survival was inactive: 94%.
For `CCSc1ncc(Cl)c(C(=O)Nc2sc3c(c2C(=O)NCCCOC)CCCC3)n1` the value was inactive: 108%; for `COc1ccc(NC(=O)CSc2nc(-c3cccc(C)c3)[nH]c2-c2ccccc2)cc1OC`, inactive: 51%.
For `CCOC(=O)c1nc(NCc2ccc(Cl)cc2)c2c(C)noc2n1` the value was inactive: 87%; for `CCC(=O)C1=C(c2ccc(C)cc2)N(C(=O)CC)n2c(nnc2C2CCCCC2)S1`, inactive: 87%.
For `CC(=O)N1CCc2cc(S(=O)(=O)NC(CC(C)C)C(=O)Nc3cc(C)cc(C)c3)ccc21` (stereo unspecified) the value was inactive: 79%.
Turning to `Cc1cccc(C)c1NC(=O)CS(=O)(=O)c1nc(-c2ccc(Cl)cc2)cn1-c1ccccc1`, the survival is inactive: 56%.
For `Cc1c(Cl)cccc1NC(=O)CCOc1ccccc1` the value was inactive: 142%; for `CCOc1ccc(Cn2c(=O)sc3ccccc32)cc1`, inactive: 85%.
The same measure for `COc1cc(C2CC(=O)Oc3c2c(=O)[nH]c2ccccc32)cc(OC)c1OC` (stereo unspecified): inactive: 75%.
For `Cc1ccc(-c2cc3nc(-c4ccccc4)cc(C(F)(F)F)n3n2)cc1` the value was inactive: 69%.
Turning to `O=C(Oc1ccccc1F)c1nc(SCc2ccc(F)cc2)ncc1Cl`, the survival is inactive: 93%.
The same measure for `CCOc1ccc(Nc2c(S(=O)(=O)c3ccccc3)cnc3ccc(F)cc23)cc1`: inactive: 92%; for `CC(=O)N1CCc2cc(Br)cc(S(=O)(=O)CCC(=O)N3CCN(c4ccccc4Cl)CC3)c21`: inactive: 61%; for `COc1ccc(-c2nc3scc(CCNS(=O)(=O)c4ccc5c(c4)OCCO5)n3n2)cc1`: inactive: 84%.
The same measure for `Cc1ccc(CN(C(=O)COc2cc(C)c(Cl)c(C)c2)c2ccccn2)o1`: inactive: 62%; for `CC(C)c1noc(-c2ccccc2OCC(=O)Nc2cccc([N+](=O)[O-])c2)n1`: inactive: 62%; for `CN(C)C(=O)c1ccc(N(C)S(=O)(=O)c2ccccc2)cc1`: inactive: 87%.
For `CCN(CC)S(=O)(=O)c1ccc2c(c1)c(=O)c(C(=O)N1CCN(c3cc(Cl)ccc3C)CC1)cn2C`, the survival is inactive: 79%.
The same measure for `CC(C)c1nn2c(=O)cc(COC(=O)c3ccco3)nc2s1`: inactive: 83%.
For `Cc1[nH]c2ccccc2c1Cc1nnc(SCC(N)=O)n1Cc1ccco1` the value was inactive: 99%; for `Cc1cc(C)c2sc(N3CCN(C(=O)c4ccc(N(C)C)cc4)CC3)nc2c1`, inactive: 124%.
For `Cc1ccc(S(=O)(=O)c2c(O)cc(C)c(NS(=O)(=O)c3ccc(Cl)cc3)c2C)cc1`, the survival is inactive: 67%.
Take `COc1ccccc1N1CCN(S(=O)(=O)c2c(C)nc3sccn3c2=O)CC1`: the survival was inactive: 80%.
The same measure for `Cc1ccc(N2CC(NC(=O)c3cc4ccccc4o3)CC2=O)cc1` (stereo unspecified): inactive: 99%.
The same measure for `CCCCNC(=O)c1cc2n(n1)CCCN(Cc1ccc(C)cc1)C2=O`: active: 32%; for `CCOc1ccc(C(=O)Nc2ccc3oc(-c4ccc5ccccc5c4)nc3c2)cc1`: inactive: 74%.
The same measure for `COc1ccc(NC(=O)Cn2c(=O)n(Cc3ccccc3)c(=O)c3sc4ccccc4c32)cc1`: inactive: 87%; for `O=C(CSc1nc(=O)[nH]c2c1CCCC2)NCc1ccccc1`: inactive: 80%; for `COc1ccccc1C(=O)Nc1ccc(C(=O)OCc2cc(=O)n3nc(C4CC4)sc3n2)cc1`: inactive: 72%.
Take `Cc1nn2c(C)c(C(=O)NC(C)(C)C)cnc2c1-c1ccc(F)cc1`: the survival was inactive: 109%.
For `Cc1c(C)c2cc3c(c(C)c2oc1=O)OCN(CCc1ccc(F)cc1)C3` the value was active: 41%.
The same measure for `Clc1ccc(CSc2nncn3c2cc2occc23)cc1`: inactive: 47%; for `Cc1ccc(Nc2ncnc3c2nc2n3CCCC2)cc1F`: inactive: 89%; for `Cc1nc2nc[nH]n2c(=O)c1NS(=O)(=O)c1ccc(Br)cc1`: inactive: 95%.
The same measure for `COc1ccccc1CNC(=O)C1CCN(S(=O)(=O)Cc2ccccc2)CC1`: inactive: 74%.
Regarding `CCOC(=O)c1c(S(=O)(=O)N2CCC(C(=O)NCc3ccccc3Cl)CC2)c(C)n(C)c1C`, the survival is inactive: 78%.
The same measure for `COCCn1ccc2c(OCC(=O)Nc3cccc(C(F)(F)F)c3)cccc2c1=O`: inactive: 101%; for `COc1ccc(N2CC(NC(=O)C(c3ccccc3)c3ccccc3)CC2=O)cc1` (stereo unspecified): inactive: 84%.
